In PubChem BioAssay AID686979 (National Center for Advancing Translational Sciences (NCATS), 2013):
Out of some 420,000 compounds screened, about 50,000 (12%) were called active. This list was built around the results that the source calls inconclusive (neither active nor inactive); the mix of calls is not that of the screen. Calls follow the shape of the dose curve; as a rule, active = well fitted inhibition curve with a large enough effect; inconclusive = small, poorly fitted or top-dose-only effect; inactive = flat fitted curve, though single readings scatter. Potencies of inconclusive entries are left out as doubtful fits.

Experiment: qHTS for Inhibitors of human tyrosyl-DNA phosphodiesterase 1 (TDP1): qHTS in cells in presence of CPT; also: nearly all actives have a fitted effect of over 55% in size
Settings: chicken DT40 Tdp1-/-;hTDP1 cells + 20 nM CPT, ATP luminescence, 48 h; activity change, negative = growth inhibition: at 46.2 µM (top of the series)
In short: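 Chicken DT40 Tdp1-/- cells stably complemented with human TDP1 were seeded at 400 cells/well in medium containing 20 nM camptothecin, exposed to pin-transferred compounds, and grown at 37 °C for at least 48 hr. Viability was read as ATP luminescence.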
% is scaled to controls: 0 for no effect and ±100 for the full control effect; potency is read from the fitted curve at half-maximal effect; tags tell the direction and shape of the fitted curve.

| SMILES | Potency | activity change, negative = growth inhibition |
| --- | --- | --- |
| CCc1ccc(CN2C(=O)c3ccccc3C2C(=O)NCCc2ccc(OC)c(OC)c2)cc1 (configuration not stated) | inconclusive [inhibitor, single point] | – |
| COc1cccc(/C=N/NC(=O)CSc2ccccc2C)c1O | active: 1.16 µM | – |
| COc1cccc(NC(=O)CSc2nc3ccccc3nc2N2CCOCC2)c1 | inconclusive [inhibitor, single point] | – |
| CCc1nc(SCC(=O)Nc2ccc(N(C)C)cc2)c2ccccc2n1 | inconclusive [inhibitor, single point] | – |
| COC(=O)[C@]1(Sc2ccc(OC)cc2)CC(=O)N[C@@H]1c1ccccc1 | inconclusive [inhibitor, single point] | – |
| COc1ccc(Cl)cc1NC(=O)CSc1nccn1Cc1ccco1 | inconclusive [inhibitor, single point] | – |
| CCOc1ccc(CC(=O)N/N=C/c2cccnc2)cc1 | inactive | – |
| O=C(CSc1ncn[nH]1)Nc1nc(-c2cccc([N+](=O)[O-])c2)cs1 | inconclusive [inhibitor, single point] | – |
| CCCCN(C)C(=O)c1sc(=O)n(Cc2ccccc2C#N)c1C | active: 13 µM | – |
| Cc1ccc(C)c(N2CCN(C(=O)c3ccc(CS(=O)(=O)c4ccc(Br)cc4)o3)CC2)c1 | inconclusive [inhibitor, single point] | – |
| Cc1ccccc1NC(=O)c1sc2nc3c(cc2c1N)CCCC3 | inconclusive [inhibitor, single point] | – |
| C#CCCCCCCCCCCCc1ccco1 | inactive | – |
| Fc1cccc(Cc2c(C3CCCCC3)nc3c4ccccc4ccn23)c1 | active: 23.1 µM | – |
| Cc1c(C(=O)NCCSCc2cccc(C(F)(F)F)c2)cnn1-c1ccc(F)cc1 | inactive | – |
| CC(C)C[C@@H](CN1CCC[C@H]1CN1C(=O)C(=O)NC[C@@H]1Cc1ccc(O)cc1)N1C[C@H](Cc2ccccc2)N(CCc2ccccc2)C(=O)C1=O | inconclusive [inhibitor, single point] | – |
| C#CCOCCOCCOCCNc1nc(N2CCN(C(=O)CCCCCCCCCCNC(=O)[C@@H](CCSC)n3cc(CCO)nn3)CC2)nc(N2CCN(C(=O)CCCCCCCCCCNC(=O)[C@H]([C@@H](C)CC)n3cc(CCCCCN)nn3)CC2)n1 | inconclusive [inhibitor, single point] | – |
| CC(C)COc1nc2ccccc2nc1N1CCN(C)CC1 | inconclusive [inhibitor, partial curve] | – |
| Cc1onc(C(=O)Nc2ccc3c(c2)OCO3)c1[N+](=O)[O-] | inactive | – |
| O=C(CSc1nnc(-c2cccnc2)n1Cc1ccco1)c1ccc(Cl)cc1 | inconclusive [inhibitor, partial curve] | – |
| Cc1cc(CNC(=O)c2cc(Br)ccc2Cl)nn1C | inconclusive [inhibitor, single point] | – |
| CN(Cc1ccc2c(c1)CN(C(=O)c1cccc(N(C)C)c1)CCO2)Cc1cc(C2CC2)n[nH]1 | – | inactive: 0.804% [at 9.04 µM] |
| CC1CCN(CCCOc2ccc(Cl)cc2Br)CC1 | inconclusive [inhibitor, single point] | – |
| CCOc1[nH]n(-c2ccccc2)c(=O)c1C=Nc1ccc(OC)cc1 | inconclusive [inhibitor, single point] | – |

| SMILES | Potency | activity change, negative = growth inhibition |
| --- | --- | --- |
| O=C(NCC(c1cccnc1)N1CCOCC1)C1CCCCC1 (configuration not stated) | inactive | – |
| Cc1ccc(CCN2CC(C(=O)NC(C)C)CC2=O)cc1 (configuration not stated) | inactive | – |
| COc1ccccc1CN1C[C@@H]2C[C@@H](C3=Cc4cccc(OC)c4OC3)N3CCC[C@@]23C1=O | inconclusive [inhibitor, single point] | – |
| COc1cc(Cl)c(C)cc1NC(=O)CSc1nnc(CCC(=O)O)c(=O)[nH]1 | inactive | – |
| CCCC1=Nc2cc(C(=O)NCc3ccc(OC)cc3)ccc2Sc2ccc(C)cc21 | active: 14.6 µM | – |
| Cc1ccc(-c2nc3ccccc3s2)cc1NC(=S)NC(=O)c1ccccc1 | inconclusive [inhibitor, single point] | – |
| Fc1cccc(-n2ncc3c2ncn2nc(COc4ccc(Cl)cc4)nc32)c1 | inactive | – |
| COC(=O)c1c(N2C(=O)[C@H]3[C@@H](C2=O)[C@]2(C(=O)Nc4c(C)cccc42)N2CCC[C@@H]32)sc(C)c1C | active: 20.6 µM | – |
| Cc1cccc(Cn2c(SCc3ccc(C(=O)NCCc4ccccc4)cc3)nc3ccncc32)c1 | inconclusive [inhibitor, single point] | – |
| O=C(CCc1nc(CN2CCN(S(=O)(=O)c3ccc(Cl)cc3)CC2)no1)N1CCCCC1 | inconclusive [inhibitor, single point] | – |
| COc1cccc(C(=O)CSc2nnc(CNS(=O)(=O)c3ccc(C)cc3)n2C)c1 | inconclusive [inhibitor, single point] | – |
| O=C(CCC1N=C2c3ccccc3N=C(SCc3ccc(F)cc3)N2C1=O)NCc1ccc(F)cc1 (configuration not stated) | inconclusive [inhibitor, single point] | – |
| O=c1c2ccccc2n(Cc2cccc(F)c2)c(=O)n1C1CCCC1 | inconclusive [inhibitor, single point] | – |
| COc1ccc(-c2cc3nc(C)c(CCC(=O)Nc4ccccc4C(C)=O)c(C)n3n2)c(OC)c1 | inactive | – |
| CCOc1ccc(C(=O)NCCn2cc(SCC(=O)Nc3ccc4c(c3)OCCO4)c3ccccc32)cc1 | inconclusive [inhibitor, single point] | – |
| O=C(CCc1c[nH]c2ccccc12)N1CCCCCCC1 | inconclusive [inhibitor, single point] | – |
| N#CCc1cnc2ccccc2n1 | inactive | – |
| Cc1c(C(=O)N2CCc3ccccc32)oc2c1C(=O)CC(C)(C)C2 | inactive | – |
| O=C(NCc1ccccn1)Nc1ccc(Cl)cc1 | inactive | – |
| COc1cc(OC)c(C(=O)NCCCn2ccnc2)cc1OC | inactive | – |
| O=S(=O)(NCc1cc(-c2ccc(Cl)cc2)no1)c1ccc(Cl)cc1 | inconclusive [inhibitor, single point] | – |
| CCC(C(=O)Nc1cc(OC)cc(OC)c1)n1nc(-c2ccc(C)c(C)c2)ccc1=O (configuration not stated) | inconclusive [inhibitor, single point] | – |
| Cc1ccc(CNc2nc(N)c([N+](=O)[O-])c(NCCO)n2)cc1 | inconclusive [inhibitor, partial curve] | – |

| SMILES | Potency | activity change, negative = growth inhibition |
| --- | --- | --- |
| Cc1ccc(NC(=O)CN(C)S(=O)(=O)c2cccs2)cc1F | inconclusive [inhibitor, single point] | – |
| COc1ccc(OC)c(NC(=O)CCCCCn2nnc3ccccc3c2=O)c1 | inconclusive [inhibitor, single point] | – |
| C[C@H](CO)N1C[C@H](C)[C@@H](CN(C)C(=O)Nc2cccc(F)c2)Oc2ncc(Br)cc2C1=O | inactive | – |
| O=C(CCc1nc2ccccc2[nH]c1=O)OCc1ccc(S(=O)(=O)N2CCOCC2)cc1 | – | inconclusive: -34.1% [inhibitor] |
| COC(=O)c1cc(Cl)ccc1NCC(N)c1ccccc1 (configuration not stated) | active: 18.4 µM | – |
| COc1ccc(Cc2c(-c3cccc(Br)c3)nc3ccc(Br)cn23)c(C)c1 | inconclusive [inhibitor, single point] | – |
| COc1ccc(C2CC(c3cccs3)=NN2C(=O)CSc2nc3ccccc3o2)cc1 (configuration not stated) | inconclusive [inhibitor, single point] | – |
| CSc1cccc(NC(=S)N(CCC(C)C)C(C)c2ccncc2)c1 (configuration not stated) | – | inconclusive: -30.4% [inhibitor] |
| COc1ccc(Cl)cc1NC(=O)Cn1c(NCCO)nc2ccccc21 | – | inconclusive: -31.8% [inhibitor] |
| O=C(CN1CCN(c2ccc(O)cc2)CC1)Nc1ccc2c(c1)OCCO2 | inconclusive [inhibitor, single point] | – |
| Cc1ccccc1C(=O)Nc1ccc(N(C)C)c2ccccc12 | inconclusive [inhibitor, partial curve] | – |
| O=c1c(=NNc2ccccc2Cl)c(=O)c2ccccc12 | inconclusive [inhibitor, full curve] | – |
| O=C(Nc1cccc(Cl)c1)c1ccc(F)c(S(=O)(=O)NCc2cccs2)c1 | inconclusive [inhibitor, single point] | – |
| CCCCN(C)c1c(C)nc2ccc(C(=O)NC3CCN(C)CC3)cn12 | inconclusive [inhibitor, single point] | – |
| CN1CCc2c(sc3c2C(=O)NC(c2ccc(OC(=O)c4ccc(C(C)(C)C)cc4)cc2)N3)C1 (configuration not stated) | inconclusive [inhibitor, single point] | – |
| COc1ccc(S(=O)(=O)NCC2CCC(C(=O)NCCCN3CCCC3=O)CC2)cc1 (configuration not stated) | inactive | – |
| COCCCNc1oc(/C=C/c2cc(OC)c(OC)c(OC)c2)nc1C#N | inconclusive [inhibitor, single point] | – |
| CC1=N/C(=C\c2ccc3c(c2)OCO3)C(=O)N1c1ccc(C(=O)O)cc1 | inconclusive [inhibitor, partial curve] | – |
| Cc1ccc(NC(=O)c2cncc(Br)c2)c([N+](=O)[O-])c1 | inactive | – |
| Cc1nc(NS(=O)(=O)c2ccc(Cl)s2)c2c3c(sc2n1)CCCC3 | inconclusive [inhibitor, single point] | – |
| CCN(CC)C(=O)c1sc2c(c1C)c(=O)n(-c1ccc(Cl)c(Cl)c1)c(=O)n2Cc1ccccc1C#N | inconclusive [inhibitor, partial curve] | – |
